In all, about 200,000 compounds went through this assay and about 10 (0.005%) were called active. Inconclusive means that the source gave no clear call. Such entries were picked first, then a sample of the others. The call rests on the fitted dose curve; in most records, active means well fitted inhibition curve with a large enough effect; inconclusive means small, poorly fitted or top-dose-only effect, or effect the other way, or another doubt; inactive means no such curve, though single readings can be large or run the other way. Potencies beside an inconclusive call are fits to weak or partial responses and may not hold up.
Target: Lysosomal alpha-glucosidase (Homo sapiens) (UniProt P10253)
Test: qHTS Assay for Inhibitors of Human alpha-Glucosidase as a Potential Chaperone Treatment of Pompe Disease;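 on activity change, negative = inhibition: plate controls were uninhibited enzyme wells for no effect and no-enzyme background for full effect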
Conditions: purified human GAA, 4-MU-alpha-glucoside fluorescence; activity change, negative = inhibition: at 76.9 µM (top of the series) unless noted
Summary of the method: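 Fluorogenic assay: 4 nM human alpha-glucosidase with 400 uM 4-methylumbelliferyl-alpha-D-pyranoside in 50 mM citrate/phosphate, 0.005% Tween-20, pH 5.0, 20 min at room temperature. Compounds tested up to 77 uM; AC50 from Hill fits.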
Potency means the concentration at half of the fitted maximal effect; tags describe the fitted curve by direction and shape.

Potency, inconclusive:
Cc1c(C(=O)N(C)C)c2ccc(Cl)cc2n1O 20 µM [inhibitor, partial curve]
Cn1c(SCc2ccccn2)nnc1-c1ccncc1 15.8 µM [inhibitor, partial curve, poor fit]
COc1ccc(/C=C/C(=O)O)cc1S(=O)(=O)NC1CCS(=O)(=O)C1 (configuration not stated) 56.2 µM [inhibitor, single point]
CC(C)(C)NC(=O)CSC(=Nc1cccc(F)c1)NC#N 20 µM [inhibitor, partial curve]
COc1ccc(-c2cc3nc(C)c(CCC(=O)N4CCN(c5ccccn5)CC4)c(C)n3n2)c(OC)c1 31.6 µM [inhibitor, single point]
O=C(CSc1ccccc1Cl)c1ccco1 56.2 µM [inhibitor, single point]
CC(C)(O)C#Cc1ccc(CN2CCN(C3CCCC3)C(CCO)C2)cc1 (configuration not stated) 7.08 µM [inhibitor, full curve]
CC(C)OCCCn1c(-c2ccco2)nc2nc3ccccc3nc21 35.5 µM [activator, partial curve]
O=C(c1ccco1)N1CCN(c2ncnc3c2[nH]c2ccc(Cl)cc23)CC1 0.447 µM [activator, full curve]
CCOC(=O)C1=C(C)NC(=O)NC1c1ccc(-c2ccc(Cl)cc2)o1 (configuration not stated) 2.82 µM [activator, partial curve]
CCOC(=O)c1cnc2ccc(OCC)cc2c1N1CCN(c2ccccc2)CC1 50.1 µM [inhibitor, single point]
COC(=O)c1cn(-c2ccc(Cl)cc2)c(=O)c2ccccc12 39.8 µM [inhibitor, single point]
c1csc(-c2ccnc3ncnn23)c1 28.2 µM [activator, partial curve]
Cc1ccc(OCCN2CCN(c3nc(NCc4ccco4)c4ccccc4n3)CC2)cc1 15.8 µM [inhibitor, partial curve]
CC(C)c1ccc(OCC(=O)N(c2ccccn2)C2CCCCC2)cc1 11.2 µM [inhibitor, single point]
COc1ccc(NC(=O)c2c(C)noc2-c2snnc2C)cc1 0.794 µM [inhibitor, full curve, poor fit]
CC/C(C)=N/Nc1nc2c(c(=O)[nH]c(=O)n2C)n1CCc1ccccc1 28.2 µM [inhibitor, single point]
Cc1c(Br)c(=O)oc2c(C)c(O)ccc12 28.2 µM [activator, partial curve]
COc1ccc(-c2nnc3ccc(SCC(N)=O)nn23)cc1OC 56.2 µM [inhibitor, single point]
CC(NC(N)=O)C(=O)Nc1ccc(Cl)c(S(=O)(=O)Nc2ccc(Cl)cc2)c1 (configuration not stated) 56.2 µM [inhibitor, single point]
COc1ccccc1N=c1oc2cc(O)ccc2cc1C(=O)NCC1CCCO1 (configuration not stated) 35.5 µM [activator, single point]
CCOC(=O)Cn1nc(/C=C/c2ccc(C)cc2)ccc1=O 0.891 µM [inhibitor, full curve]
CCCc1nc2ccccc2c(C(=O)OCC(=O)NCc2ccc3c(c2)OCO3)c1CC 12.6 µM [inhibitor, partial curve, poor fit]
CCc1noc(C)c1C(=O)Nc1nc(-c2ccc(Cl)cc2Cl)cs1 7.94 µM [inhibitor, single point]
Cc1cc(C)nc(N2C(=O)CC(Cc3ccccc3)C2=O)n1 (configuration not stated) 31.6 µM [inhibitor, single point]
O=C(c1nc2nc(-c3cccs3)cc(C(F)(F)F)n2n1)N1CCN(Cc2ccccc2)CC1 31.6 µM [activator, single point]
CCCN(CCC)CCNC(=O)C1c2ccccc2C(=O)N(CCOC)C1c1ccc(F)cc1 (configuration not stated) 50.1 µM [inhibitor, single point]
CC1Cc2nc(SCC(=O)NCCc3ccccc3)n(C)c(=O)c2S1 (configuration not stated) 3.98 µM [inhibitor, single point]
COc1ccccc1-c1ccc(/C=C2/C=C(C)OC2=O)o1 39.8 µM [activator, single point]
COC(=O)c1sc(SC)c(-c2ccon2)c1C 0.447 µM [inhibitor, full curve, poor fit]
COc1cccc(C2C3=C(CCCC3=O)Nc3nc(-c4cc(OC)c(OC)c(OC)c4)nn32)c1 (configuration not stated) 31.6 µM [activator, partial curve]
COc1cc2c(cc1/C=C/C(=O)O)OC(C)C2 (configuration not stated) 39.8 µM [activator, partial curve]
COc1cc(/C=N/N=C2/C(=O)Nc3ccccc32)ccc1O 12.6 µM [inhibitor, single point]
COc1cc2c(cc1OC)CN(Cc1cc(=O)oc3c(C)c(C)ccc13)CC2 15.8 µM [inhibitor, partial curve]
O=C(NC1CC1)C1CCN(c2ccc(S(=O)(=O)N3CCOCC3)cc2)CC1 31.6 µM [inhibitor, single point]
C/C(=N/NC(=S)Nc1ccccc1)c1ccc2c(c1)OCO2 11.2 µM [inhibitor, single point]
Cc1cccc(NC(=O)Cn2c(O)c(N=NC(=O)c3ccccc3O)c3ccccc32)c1 28.2 µM [inhibitor, partial curve, poor fit]
O=C(c1ccccc1)c1ccc(OCCO)cc1 11.2 µM [inhibitor, single point]
CCn1c2ccccc2c2cc(NC(=O)CSc3nnc(-c4cccc(Cl)c4)o3)ccc21 0.178 µM [inhibitor, full curve, poor fit]
Nc1ccc2nc(-c3ccccc3)sc2c1 35.5 µM [activator, partial curve]
O=C(N/C(=C/c1cccc(Br)c1)c1nc(=S)[nH][nH]1)c1ccccc1 28.2 µM [inhibitor, single point]
CCc1ccc(NCc2nc3ccccc3c(=O)[nH]2)cc1 12.6 µM [inhibitor, single point]
CCCCCn1c(-c2ccco2)nc2nc3ccccc3nc21 39.8 µM [activator, partial curve]
NC(=S)c1cc2ccc(O)cc2oc1=O 28.2 µM [activator, partial curve]
CCCNC(=O)c1oc2ccc3c(c2c1C)C(=O)CC(C)(C)O3 2.82 µM [activator, partial curve]

Potency, inactive:
COc1ccccc1CNc1n[nH]c(NCc2ccccc2OC)n1
CC1OC2(C)OC(=N)C1(C#N)C(C#N)(C#N)C2c1ccccc1 (configuration not stated)
CCOc1cc(CNc2ccc(N3CCOCC3)cc2)cc(Br)c1OCC
Cc1ccc(NC(=S)N/N=C/c2c(C)[nH]c3ccccc23)cc1
C=CCc1c(C)nc(-c2ccccc2)nc1N/N=C(\C)c1ccc(N)cc1

Activity change, negative = inhibition, inconclusive:
O=C1c2ccccc2C(=O)N1CCSc1nc2ccccc2c(=O)n1CCCN1CCOCC1 -19.8% [inhibitor]
COc1cccc(N(C(=O)C2CSC(=O)C2)C(C(=O)NC(C)(C)C)c2ccncc2)c1 (configuration not stated) 16.5% [activator]
CCOC(=O)C(=O)Nc1ccc(F)cc1 14.1% [activator]
C[C@@H](Nc1nc(-c2ccccc2)nc2c1oc1ccccc12)C(=O)O -17.2% [inhibitor]
COC(=O)c1ccc(CSc2nnnn2Cc2ccccc2)cc1 -15.9% [inhibitor]
Cc1ccc(NC(=O)C2CC(=O)Nc3nncn32)cc1 (configuration not stated) 8.45% [activator]
COc1cccc(/C=N/NC(=O)CCNc2n[nH]c(=O)[nH]c2=O)c1OC 13.1% [activator]
CCC(c1nnnn1Cc1ccco1)N1CCN(c2cc(Cl)ccc2C)CC1 (configuration not stated) -16.3% [inhibitor]
CCNS(=O)(=O)c1cc(OC)ccc1OC -17.6% [inhibitor]
CC1CCc2c(sc3ncn(CCO)c(=O)c23)C1 (configuration not stated) 13.1% [activator]
COc1ccc(-c2ccc(-c3noc(-c4ccccc4OC)n3)c(OC)n2)cc1 15.8% [activator]
COc1ccc(NC(=O)C23CCC(C)(C(=O)O2)C3(C)C)cc1 (configuration not stated) -15.5% [inhibitor]
COc1ccc(C2c3c(oc4c(C)cc(C)cc4c3=O)C(=O)N2Cc2cccnc2)cc1OC (configuration not stated) 16.3% [activator]
Cc1sc(NC(=O)c2ccco2)c(CN2CCC(C)CC2)c1C -17.3% [inhibitor]
CCOC(=O)N1CCN(CCC(=O)Nc2cc(C)ccc2OC)CC1 18.9% [activator]
CCCCC(=O)NC1(C(F)(F)F)C(=O)Nc2c1c(=O)n(C)c(=O)n2C (configuration not stated) -15.4% [inhibitor]
CC(=O)/C=C/c1ccc(C)o1 0.902% [inhibitor] [at 15.4 µM]

Reference: PubChem BioAssay AID1466 (National Center for Advancing Translational Sciences (NCATS), 2008)
